# Out of some 310,000 compounds screened, about 2,200 (0.71%) showed an effect of 50% or more. The effect is printed as a negative number. The list shows a part of the results.
# Molecular target: human ether-à-go-go-related gene (hERG) potassium channel (human, UniProt Q12809)
# Test: primary screen, population patch clamp on CHO cells stably expressing hERG
# Sequence of human ether-à-go-go-related gene (hERG) potassium channel (Q12809 whole entry, looked up): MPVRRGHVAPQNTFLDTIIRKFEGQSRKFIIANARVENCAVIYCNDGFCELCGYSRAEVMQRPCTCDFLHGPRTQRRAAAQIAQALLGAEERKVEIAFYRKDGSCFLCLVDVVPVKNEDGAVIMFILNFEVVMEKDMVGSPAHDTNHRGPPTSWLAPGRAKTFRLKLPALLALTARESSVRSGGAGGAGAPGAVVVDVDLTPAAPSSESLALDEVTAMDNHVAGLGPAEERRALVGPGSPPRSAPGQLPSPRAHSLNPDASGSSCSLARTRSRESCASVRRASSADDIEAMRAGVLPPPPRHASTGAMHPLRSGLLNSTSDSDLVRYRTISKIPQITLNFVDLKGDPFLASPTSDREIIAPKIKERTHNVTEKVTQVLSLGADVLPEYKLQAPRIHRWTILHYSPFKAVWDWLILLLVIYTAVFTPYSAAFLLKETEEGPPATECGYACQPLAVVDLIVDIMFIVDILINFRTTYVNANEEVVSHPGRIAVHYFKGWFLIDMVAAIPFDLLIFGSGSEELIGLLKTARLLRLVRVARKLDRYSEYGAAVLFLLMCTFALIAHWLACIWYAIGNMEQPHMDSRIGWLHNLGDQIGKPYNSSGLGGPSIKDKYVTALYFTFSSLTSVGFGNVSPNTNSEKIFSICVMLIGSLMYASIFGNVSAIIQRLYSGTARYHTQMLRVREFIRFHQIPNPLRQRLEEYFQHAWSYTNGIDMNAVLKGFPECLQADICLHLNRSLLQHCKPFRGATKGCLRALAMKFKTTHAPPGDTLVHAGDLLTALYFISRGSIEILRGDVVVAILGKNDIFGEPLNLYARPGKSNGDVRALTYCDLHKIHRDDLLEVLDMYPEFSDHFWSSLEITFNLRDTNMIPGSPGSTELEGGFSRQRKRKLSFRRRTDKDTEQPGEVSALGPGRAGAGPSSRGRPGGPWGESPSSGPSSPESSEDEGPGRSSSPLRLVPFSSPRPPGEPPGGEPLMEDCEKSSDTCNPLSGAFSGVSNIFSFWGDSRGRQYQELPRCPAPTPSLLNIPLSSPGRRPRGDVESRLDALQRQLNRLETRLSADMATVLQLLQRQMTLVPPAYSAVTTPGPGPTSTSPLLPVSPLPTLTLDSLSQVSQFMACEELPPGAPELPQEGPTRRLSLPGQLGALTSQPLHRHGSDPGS
row,Compound,"hERG current change (%, negative = inhibition) at 1uM [%]"
1,COc1ccc(C2/C=C\CN(C(=O)CC(C)(C)C)CC(=O)N2Cc2ccc(F)cc2)cc1 (stereo not drawn),12.8
2,Cc1cccc(N(CC(=O)NCc2ccccc2)C(=O)CCC(=O)Nc2nccs2)c1,13.8
3,CCn1c2ccccc2n2c(=O)c(=O)n(CC(=O)N3CCN(c4ccccc4OC)CC3)nc12,18.1
4,Brc1ccc(CN2CCN(c3ccccc3)CC2)o1,14.6
5,COc1cc(/C=N/O)ccc1OCc1ccc(C(=O)O)cc1,3.39
6,COc1ccc(Cl)cc1S(=O)(=O)N1CCC(C(=O)NCc2ccco2)CC1,-1.02
7,Cc1cccc(N(C(=O)CNC(=O)c2ccco2)C(C(=O)NC2CCCC2)c2ccncc2)c1C (stereo not drawn),10.5
8,C/C(=N\OC(=O)c1ccc(Cl)c(Cl)c1)c1sc(C)nc1C,-1.44
9,Cc1nc2c(C)cccn2c1/C(O)=C1\C(=O)C(=O)N(CCN(C)C)C1c1ccco1 (stereo not drawn),11.2
10,CCOC(=O)c1c(-c2ccccc2)nnn1-c1nc(OCC)nc(N2CCCCC2)n1,7.47
11,Cc1ccccc1C(=O)NN1C(=O)CSC1=S,15.5
12,CN(C)C(CNC(=O)Cc1ccc([N+](=O)[O-])cc1)c1ccccc1 (stereo not drawn),4.08
13,COc1ccc(NC(=O)CSc2nnc3ccc(-c4ccccn4)nn23)cc1,16.8
14,CCOc1ccc(S(=O)(=O)N2CCN(CC(O)COc3cccc([N+](=O)[O-])c3)CC2)cc1 (stereo not drawn),-36.4
15,COC(=O)c1cc(NS(=O)(=O)c2ccc3c(c2)CCC(=O)N3)cc(C(=O)OC)c1,12.5
16,N#CCC(=O)N1CCN(C(c2ccccc2)c2ccccc2)CC1,9.67
17,CNc1nc(Oc2ccccc2C(=O)OC)nc(SC)n1,3.5
18,Cc1ccc(OCC(=O)Nn2c(C)nc3ccccc3c2=O)c(C(C)C)c1,-2.35
19,NS(=O)(=O)c1ccc(CCNC(=O)c2ccc3ccccc3n2)cc1,4.48
20,CC(=O)N1CCc2c(sc(NC(=O)C3CCCN3S(=O)(=O)c3cccs3)c2C#N)C1 (stereo not drawn),7.46
21,COC(=O)C1=C(O)/C(=C\c2ccc(O)c(OC)c2)N=C1C,-1.12

row,Compound,"hERG current change (%, negative = inhibition) at 1uM [%]"
1,Cn1c(=O)c2c(nc(CN3CCN(c4cccc(Cl)c4)CC3)n2CCc2ccccc2)n(C)c1=O,5.57
2,CC(C)(C)C(=O)N1CCN(c2nc3ccc(Cl)cc3s2)CC1,8.73
3,CC12CCC(C(=O)Nc3ccccc3Cl)(C(Br)C1=O)C2(C)C (stereo not drawn),10
4,O=C(NCc1ccccn1)C1CCC(=O)N1C1CCCC1 (stereo not drawn),5.12
5,CC[C@H]1CN(C)C[C@@]2(C(=O)OC)Cc3c([nH]c4ccccc34)C(=O)C[C@@H]12,10.5
6,CCOc1ccccc1N1CSC2=C(C#N)C(c3c(OC)ccc4ccccc34)CC(=O)N2C1 (stereo not drawn),18.2
7,CCCCc1ccc(-n2nnnc2SCC(=O)Nc2cc(OC)c([N+](=O)[O-])cc2C)cc1,12.1
8,CC1(C)C(=O)CC[C@]2(C)C3C(=O)C=C4[C@H]5C[C@@](C)(C(=O)O)CC[C@]5(C)CC[C@]4(C)[C@]3(C)CC[C@@H]12 (stereo partly drawn),18.2
9,Cc1ccc(S(=O)(=O)c2cn(C)c3cc(N4CCOCC4)c(F)cc3c2=O)cc1,2.45
10,CCc1ccc(NS(=O)(=O)c2c(C(=O)N3CCOCC3)c(C)n(C)c2C)cc1,2.43
11,O=C(Cc1cccs1)Nc1ccccn1,16.9
12,COc1ccccc1/C=C/C(=O)NCC(=O)N/N=C(\CCC(=O)O)c1ccccc1,-2.9
13,O=C(CN1CCN(Cc2ccccc2)CC1)Nc1ccc(Cl)cn1,-70
14,COc1ccc([N+](=O)[O-])cc1NC(=O)c1ccc(N(Cc2ccccc2C)S(C)(=O)=O)cc1,-2.02
15,Cc1ccc(C(=O)OCC(=O)N2CC(C)CC(C)C2)cc1S(=O)(=O)N1CCOCC1 (stereo not drawn),6.1
16,CC(C)(C)c1ccc(/C=C2\SC(=O)N=C2N)cc1,7.88
17,COCCNC(=O)NC(=O)CN1CCN(C(c2ccccc2)c2ccccc2)CC1,1.52
18,CC(=O)c1c(C)[nH]c(C(=O)CSc2nnc(-c3ccco3)n2Cc2ccccc2)c1C,-5.61
19,COc1ccccc1-c1nn(Cc2ccccc2)cc1/C=C/C(=O)O,8.79
20,CCN(c1cccc(C)c1)S(=O)(=O)c1ccc(-c2cc(C)no2)s1,11.1
21,O=C(O)C1CCC(=O)N(C2CCCCC2)C1c1ccccc1Cl (stereo not drawn),12

row,Compound,"hERG current change (%, negative = inhibition) at 1uM [%]"
1,NC(=O)CNC(=O)C1CCN(S(=O)(=O)c2ccc(-n3cnnn3)cc2)CC1,-17.1
2,CCCOc1ccc(N2C(=O)CC(NCCc3ccc(S(N)(=O)=O)cc3)C2=O)cc1 (stereo not drawn),7.21
3,Nc1c(C(=O)c2ccc(Br)s2)oc2ccccc12,-3.47
4,Cc1cc(C)c(OCCCCN(C)Cc2ccccc2)c(C)c1.O=C(O)C(=O)O,14.7
5,CCOC(=O)c1cccc(NC(=O)c2c(O)[nH]c(=O)[nH]c2=O)c1,4.26
6,COc1ccccc1CNS(=O)(=O)c1cc2c3c(c1)C(C)C(=O)N3CCC2 (stereo not drawn),18.1
7,CCCCCOC(=O)CSc1nnc(-c2ccccc2)c(=O)[nH]1,4.84
8,Cc1ccc(N(CC(=O)NC2CCCC2)C(=O)CCC(=O)Nc2nc(C)cs2)cc1,7.5
9,Cc1ccc(NC(=O)CCCc2c[nH]c3ccccc23)nc1,8.81
10,CC1Cc2nc(SCC(=O)Nc3nc4ccccc4s3)n(C)c(=O)c2S1 (stereo not drawn),-0.256
11,CC1Cc2ccccc2N1C(=O)CCNS(=O)(=O)c1cccc2nsnc12 (stereo not drawn),11
12,Cc1c(C=O)c2ccccc2n1CC(=O)NC(C)c1ccccc1 (stereo not drawn),15.2
13,CCN(CC)C(=O)CSc1nnc(-c2cc(-c3ccc(Cl)cc3)nc3ccccc23)o1,6.61
14,COC(=O)c1ccc(S(=O)(=O)NCc2ccc(S(N)(=O)=O)cc2)o1,14.4
15,COc1cc2c(C#N)c(N3CCc4ccccc4C3)nc(N)c2c(N)n1,11.1
16,CCOC(=O)c1ccc(OCCOc2cccc(C)c2)cc1,12.1
17,CCn1c(-c2cc(Br)cc(OC)c2O)nc2cc(S(=O)(=O)N(C)C)ccc21,11.3
18,CN(C)c1ccc(NC(=O)CN2C(=O)CN=C(c3ccccc3)c3cc(Cl)ccc32)cc1,5.96
19,Cc1ccc(C)c(NC(=O)CSc2nnc3n2CCCCC3)c1,10.3
20,CCCCn1nnc(NC(=O)c2ccc(-c3ccccc3)cc2)n1,13.7
21,COc1ccc(CCn2c(C)nc3c(c(=O)c4ccccc4n3C)c2=O)cc1,1.18

row,Compound,"hERG current change (%, negative = inhibition) at 1uM [%]"
1,C[C@@H]1CN(C(=O)c2nc3ccc(Cl)cn3c2CN2CCc3sccc3C2)C[C@H](C)O1,7.7
2,COc1ccc(COc2ccc(S(=O)(=O)N3CCCC3)cc2C(N)=O)cc1F,17.7
3,COc1ccnc(Oc2ccc(F)cc2)c1C(=O)N/C=N/OCc1ccc(F)cc1,10.2
4,Cc1noc(C)c1COC(=O)c1cc(=O)[nH]c2ccccc12,-10.1
5,COc1ccc(/C=N/NC(=O)c2ccoc2C)cc1COc1ccc(Cl)cc1,10.7
6,O=C(c1c(Cl)cccc1Cl)N1CCCCCC1,6.36
7,C=CCSc1cc(C)nc2c(-c3ccc(Cl)cc3)c(C)nn12,4.01
8,COC(=O)c1cc(C(=O)c2ccccc2)n2c(=O)/c(=C\N(C)C)sc12,8.9
9,CCOC(=O)c1c(C)[nH]c(C(=O)CSc2nnnn2-c2ccccc2)c1C,18.6
10,Cc1ccc(C(=O)COc2nc(C)nc3ccccc23)cc1,25.4
11,CC(C)[C@H](NC(=O)C1CCN(S(=O)(=O)c2ccccc2)CC1)C(=O)NCc1ccncc1,8.5
12,O=C(NC(Cc1ccccc1)C(=O)O)/C(=C\c1ccccc1)NC(=O)c1ccco1 (stereo not drawn),1.26
13,N#CCCCCn1c(-c2cncs2)nc2ccccc21,-10.9
14,O=c1ccc2cc(O)c(O)cc2o1,15.7
15,CC(C)(C)c1ccc(OCCC(=O)OCC(=O)NC2CCS(=O)(=O)C2)cc1 (stereo not drawn),-6.48
16,COc1ccc(N2CCN(S(=O)(=O)c3cc(-c4cc(C)no4)ccc3C(C)C)CC2)cc1,5.37
17,CCN(CC)CCn1c2c(c(SCC(=O)Nc3nc(C)cs3)nc1=O)CCC2,-7.88
18,O=C(COC(=O)C(Cc1ccccc1)NC(=O)c1ccccc1)c1ccccc1 (stereo not drawn),8.08
19,CCC(SC1=N/C(=C/c2ccccc2)C(=O)N1c1ccccc1)C(=O)Nc1cc(C)on1 (stereo not drawn),12.7
20,Cc1cc(-c2ccccc2)c2c(n1)sc1c(O)cc(=O)[nH]c12,11.2
21,Cc1ccc(NC(=O)c2ccc(NCCc3ccccc3)c([N+](=O)[O-])c2)cc1F,8.08
